In patent US9566290B2, “Boron-containing small molecules” (Anacor Pharmaceuticals, Inc., priority 2005, dated 2017):

System: Trichophyton rubrum (T. rubrum)
Experiment: TurChub zone of inhibition assay through full thickness human nail
Type: cell-based
Conditions: C10 10% w/v solution, 40 μL/cm^2 per day over five days; first experiment (FIG. 6), six cells
Method: The aim of the current study was to assess and compare the perungual absorption of C10 in a simple vehicle using MedPharm's TurChub® model (see http://www.medpharm.co.uk; specificaly http://www.medpharm.co.uk/downloads/Skin%20and%20nail%2dec%202003.pdf viewed Feb. 14, 2006). in a full scale experiment. Six replicates involving C10 were conducted and Formulations Y (8% ciclopirox w/w in commercial lacquer) and Z (Loceryl, 5% amorolfine w/v in commercial lacquer) were used as the reference formulations.
A dose of 40 μL/cm^2 of the test compound C10 in 50:50 propylene glycol:ethyl acetate was applied to a full thickness nail sample each day over a total duration of five days. Both the reference formulations were also applied at the same dose.
Placebo, test item C10 in vehicle and the reference formulations Y and Z were tested for their inhibition of Trichophyton rubrum (T. rubrum) growth after penetration through a full thickness human nail using a zone of inhibition measurement.

With `OB1OCc2cc(F)ccc21` [C10, 5-fluorobenzo[c][1,2]oxaborol-1(3H)-ol] the Zones of inhibition was 67, 46, 57, 38, 71% [one passage].

Certain results were filed several times, with different values. The other results are left out here. An entry can have further records. The values listed for one entry seem to repeat one measurement; a mean can stand among them.
